These are yes or no findings as the source states them, for the method shown. Some entries that bind do so weakly or less than the wild type.

For assay [1], the target named is T1, ZED1^wt (Arabidopsis thaliana) (UniProt Q8LGB6).
T1 sequence: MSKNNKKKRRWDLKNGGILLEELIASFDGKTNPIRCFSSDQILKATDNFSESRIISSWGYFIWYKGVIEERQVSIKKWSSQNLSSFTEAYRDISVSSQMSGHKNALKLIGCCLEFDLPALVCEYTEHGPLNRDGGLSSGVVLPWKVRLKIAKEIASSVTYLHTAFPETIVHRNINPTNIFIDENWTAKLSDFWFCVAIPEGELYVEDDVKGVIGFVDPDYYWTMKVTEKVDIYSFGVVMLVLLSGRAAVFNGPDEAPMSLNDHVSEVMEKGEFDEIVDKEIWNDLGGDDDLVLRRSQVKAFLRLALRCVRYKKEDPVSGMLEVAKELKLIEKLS
As to the kind of experiment: two-hybrid; Y3H: LexA-ZED1 (wt or mutant) bait, PBL (wt or mutant) preys, HopZ1a^wt expressed from the yeast ho locus.

Assay [2] deals with T2, ZRK1/RKS1 (Arabidopsis thaliana) (UniProt Q9SVY5).
T2 sequence: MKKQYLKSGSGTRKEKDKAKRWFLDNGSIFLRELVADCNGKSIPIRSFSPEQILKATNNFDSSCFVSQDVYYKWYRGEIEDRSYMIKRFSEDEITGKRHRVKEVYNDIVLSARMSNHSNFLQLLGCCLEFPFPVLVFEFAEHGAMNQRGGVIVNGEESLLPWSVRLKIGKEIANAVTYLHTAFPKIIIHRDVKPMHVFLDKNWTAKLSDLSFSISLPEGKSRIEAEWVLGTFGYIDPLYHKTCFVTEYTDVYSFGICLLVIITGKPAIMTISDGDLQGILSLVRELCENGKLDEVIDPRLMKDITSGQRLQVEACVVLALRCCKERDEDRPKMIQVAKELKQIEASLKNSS
As to the kind of experiment: two-hybrid; Y2H: LexA-ZRK1/RKS1 bait, 46 PBL preys, no AvrAC; X-Gal reporter plates, 30°C.

Assay [3] concerns the target T3, ZED1^‘EDG’ (Arabidopsis thaliana) (UniProt Q8LGB6).
T3 sequence: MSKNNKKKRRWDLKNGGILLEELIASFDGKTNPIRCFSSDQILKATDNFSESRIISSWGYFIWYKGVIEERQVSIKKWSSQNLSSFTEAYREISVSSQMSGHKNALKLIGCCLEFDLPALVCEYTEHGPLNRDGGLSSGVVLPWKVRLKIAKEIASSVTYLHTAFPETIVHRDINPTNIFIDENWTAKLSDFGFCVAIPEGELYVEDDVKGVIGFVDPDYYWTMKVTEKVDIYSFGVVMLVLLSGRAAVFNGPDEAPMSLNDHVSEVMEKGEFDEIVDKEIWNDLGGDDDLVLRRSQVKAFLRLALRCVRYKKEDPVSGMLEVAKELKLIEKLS
As to the kind of experiment: two-hybrid; Y2H: LexA-ZED1 (wt or mutant) bait, PBL (wt or mutant) preys, no effector; X-Gal reporter plates, 30°C.

In assay [4] the target is T4, ZED1^V212T (Arabidopsis thaliana) (UniProt Q8LGB6).
T4 sequence: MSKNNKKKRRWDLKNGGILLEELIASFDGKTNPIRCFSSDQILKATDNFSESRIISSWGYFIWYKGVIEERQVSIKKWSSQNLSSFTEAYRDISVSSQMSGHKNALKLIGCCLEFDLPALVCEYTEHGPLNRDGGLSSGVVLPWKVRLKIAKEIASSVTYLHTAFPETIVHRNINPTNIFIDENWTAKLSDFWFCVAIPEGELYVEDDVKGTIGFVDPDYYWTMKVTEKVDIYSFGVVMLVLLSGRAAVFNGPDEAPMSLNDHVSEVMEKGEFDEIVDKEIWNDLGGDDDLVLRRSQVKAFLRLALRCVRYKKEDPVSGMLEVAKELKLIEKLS
The assay is described as above.

Assay [5] addresses T5, ZED1^(N173D W193G) (Arabidopsis thaliana) (UniProt Q8LGB6).
T5 sequence: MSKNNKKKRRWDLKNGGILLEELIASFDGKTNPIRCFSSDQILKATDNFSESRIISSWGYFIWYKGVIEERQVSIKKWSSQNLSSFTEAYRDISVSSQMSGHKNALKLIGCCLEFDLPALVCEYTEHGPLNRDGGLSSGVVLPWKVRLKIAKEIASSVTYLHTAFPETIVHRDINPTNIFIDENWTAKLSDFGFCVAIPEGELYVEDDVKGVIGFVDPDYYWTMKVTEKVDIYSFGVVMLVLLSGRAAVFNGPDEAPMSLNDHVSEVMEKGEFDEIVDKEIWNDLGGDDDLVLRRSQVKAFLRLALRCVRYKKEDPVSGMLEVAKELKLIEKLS
The description is as above.

Assay [6] has as its target T1, ZED1^wt (Arabidopsis thaliana). In words: two-hybrid; Y3H: LexA-ZED1 bait, 46 PBL preys, HopZ1b expressed from the ho locus.
The target in assay [7] is T2, ZRK1/RKS1 (Arabidopsis thaliana). As to the kind of experiment: two-hybrid; Y3H: LexA-ZRK1/RKS1 bait, 46 PBL preys, AvrAC expressed from the yeast ho locus.
The target in assay [8] is T6, ZED1^(D92E N173D) (Arabidopsis thaliana) (UniProt Q8LGB6).
T6 sequence: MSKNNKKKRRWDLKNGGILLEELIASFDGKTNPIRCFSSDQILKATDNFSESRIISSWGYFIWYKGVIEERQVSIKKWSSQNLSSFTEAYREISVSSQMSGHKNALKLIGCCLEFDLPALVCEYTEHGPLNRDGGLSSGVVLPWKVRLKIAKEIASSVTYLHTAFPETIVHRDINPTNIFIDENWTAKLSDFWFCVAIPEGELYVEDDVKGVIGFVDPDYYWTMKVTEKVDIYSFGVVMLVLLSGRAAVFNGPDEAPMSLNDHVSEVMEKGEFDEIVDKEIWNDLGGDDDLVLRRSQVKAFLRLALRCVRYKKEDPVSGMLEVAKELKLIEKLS
In words: two-hybrid; Y2H: LexA-ZED1 (wt or mutant) bait, PBL (wt or mutant) preys, no effector; X-Gal reporter plates, 30°C.

Assay [9] deals with T7, ZED1^N173D (Arabidopsis thaliana) (UniProt Q8LGB6).
T7 sequence: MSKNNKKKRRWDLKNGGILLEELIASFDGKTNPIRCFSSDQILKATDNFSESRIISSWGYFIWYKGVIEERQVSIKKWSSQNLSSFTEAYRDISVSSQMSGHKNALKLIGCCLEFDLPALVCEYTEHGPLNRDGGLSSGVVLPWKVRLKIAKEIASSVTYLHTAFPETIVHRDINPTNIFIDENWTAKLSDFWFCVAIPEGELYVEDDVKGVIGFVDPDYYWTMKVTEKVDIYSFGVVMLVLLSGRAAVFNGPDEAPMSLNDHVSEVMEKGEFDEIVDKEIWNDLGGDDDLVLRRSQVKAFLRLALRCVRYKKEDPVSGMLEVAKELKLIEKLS
The description is as above.

Assay [10] deals with HopZ1a^wt (Pseudomonas syringae) (UniProt Q6VE93). In words: two-hybrid; Y2H: LexA-HopZ1a (wt or C216A) bait, array of 46 NLS-B42-HA-PBL preys, diploid yeast, X-Gal reporter plates, 30°C.

B1: PBL21 (protein, UniProt Q9LDZ5 1-381)
chain: MTCCFSCLNPRTKDIRVDIDNARCNSRYQTDSSVHGSDTTGTESISGILVNGKVNSPIPGGGARSFTFKELAAATRNFREVNLLGEGGFGRVYKGRLDSGQVVAIKQLNPDGLQGNREFIVEVLMLSLLHHPNLVTLIGYCTSGDQRLLVYEYMPMGSLEDHLFDLESNQEPLSWNTRMKIAVGAARGIEYLHCTANPPVIYRDLKSANILLDKEFSPKLSDFGLAKLGPVGDRTHVSTRVMGTYGYCAPEYAMSGKLTVKSDIYCFGVVLLELITGRKAIDLGQKQGEQNLVTWSRPYLKDQKKFGHLVDPSLRGKYPRRCLNYAIAIIAMCLNEEAHYRPFIGDIVVALEYLAAQSRSHEARNVSSPSPEISRTPRRDL
Turning to B1, the binding entry in [1], in [2], in assay [3], in assay [4], in [5] and in [6] was “binds” throughout.

B2: PBL3 (protein, UniProt O49840 1-426)
chain: MGNCLDSSAKVDSSSHSPHANSASLSSRVSSKTSRSTVPSSLSINSYSSVESLPTPRTEGEILSSPNLKAFTFNELKNATRNFRPDSLLGEGGFGYVFKGWIDGTTLTASKPGSGIVVAVKKLKTEGYQGHKEWLTEVNYLGQLSHPNLVKLVGYCVEGENRLLVYEFMPKGSLENHLFRRGAQPLTWAIRMKVAIGAAKGLTFLHDAKSQVIYRDFKAANILLDAEFNSKLSDFGLAKAGPTGDKTHVSTQVMGTHGYAAPEYVATGRLTAKSDVYSFGVVLLELLSGRRAVDKSKVGMEQSLVDWATPYLGDKRKLFRIMDTRLGGQYPQKGAYTAASLALQCLNPDAKLRPKMSEVLAKLDQLESTKPGTGVGNRQAQIDSPRGSNGSIVQKSPRRYSYDRPLLHITPGASPLPTHNHSPRVR
On to B2, for which the binding entry in assay [7] was “binds”.

B3: PBL24 (protein, UniProt Q1PE89 1-389)
chain: MSCFLGPSTNNKSRENEGSSMAAPYEQQNLPRNDRRQITTWEAVGTNKESPKNIKAKSFKFRELATATNSFRQEFLIGEGGFGRVYKGKMEKTGQVVAVKQLDRNGLQGNREFLVEIFRLSLLHHPNLANLIGYCLDGDQRLLVHEFMPLGSLEDHLLDVVVGQQPLDWNSRIRIALGAAKGLEYLHEKANPPVIYRDFKSSNILLNVDFDAKLSDFGLAKLGSVGDTQNVSSRVVGTYGYCAPEYHKTGQLTVKSDVYSFGVVLLELITGKRVIDTTRPCHEQNLVTWAQPIFREPNRFPELADPLLQGEFPEKSLNQAVAIAAMCLQEEPIVRPLISDVVTALSFMSTETGSPSGLTGTALNPLSPKTVEDQGWLQCESPRDVYSLL
Regarding B3, the binding result in assay [1] is on record as “binds weakly”; in assay [3] it was “binds”; in assay [5], “binds”.

B4: PBL2 (protein, UniProt O49839 1-426)
chain: MGNCLDSSAKVDNSNHSPHANSASSGSKVSSKTSRSTGPSGLSTTSYSTDSSFGPLPTLRTEGEILSSPNLKAFTFNELKNATKNFRQDNLLGEGGFGCVFKGWIDQTSLTASRPGSGIVVAVKQLKPEGFQGHKEWLTEVNYLGQLSHPNLVLLVGYCAEGENRLLVYEFMPKGSLENHLFRRGAQPLTWAIRMKVAVGAAKGLTFLHEAKSQVIYRDFKAANILLDADFNAKLSDFGLAKAGPTGDNTHVSTKVIGTHGYAAPEYVATGRLTAKSDVYSFGVVLLELISGRRAMDNSNGGNEYSLVDWATPYLGDKRKLFRIMDTKLGGQYPQKGAFTAANLALQCLNPDAKLRPKMSEVLVTLEQLESVAKPGTKHTQMESPRFHHSSVMQKSPVRYSHDRPLLHMTPGASPLPSYTQSPRVR
With B4, the binding result in [2] and in [7] was “binds” in each case.

B5: PBS1 (protein, UniProt Q9FE20 1-456)
chain: MGCFSCFDSSDDEKLNPVDESNHGQKKQSQPTVSNNISGLPSGGEKLSSKTNGGSKRELLLPRDGLGQIAAHTFAFRELAAATMNFHPDTFLGEGGFGRVYKGRLDSTGQVVAVKQLDRNGLQGNREFLVEVLMLSLLHHPNLVNLIGYCADGDQRLLVYEFMPLGSLEDHLHDLPPDKEALDWNMRMKIAAGAAKGLEFLHDKANPPVIYRDFKSSNILLDEGFHPKLSDFGLAKLGPTGDKSHVSTRVMGTYGYCAPEYAMTGQLTVKSDVYSFGVVFLELITGRKAIDSEMPHGEQNLVAWARPLFNDRRKFIKLADPRLKGRFPTRALYQALAVASMCIQEQAATRPLIADVVTALSYLANQAYDPSKDDSRRNRDERGARLITRNDDGGGSGSKFDLEGSEKEDSPRETARILNRDINRERAVAEAKMWGESLREKRRQSEQGTSESNSTG
With B5, the binding entry in assay [1] is listed as “binds”; in [8], “binds”; in [3], “no binding”; in assay [9], “binds”; in assay [5], “no binding”; in assay [10], “no binding”.

The values are drawn from paper PMC6634424.
